Source: PubChem BioAssay AID1768 (National Center for Advancing Translational Sciences (NCATS), 2009)
Out of some 270,000 compounds screened, about 620 (0.23%) were called active. This list was built around the results that the source calls inconclusive (neither active nor inactive); the mix of calls is not that of the screen. Calls follow the shape of the dose curve; as a rule, active = well fitted inhibition curve with a large enough effect in the polarisation, with a control signal flat (not every such curve was filed as active); inconclusive = small, poorly fitted or top-dose-only effect, or effect the other way, or a change in a side signal; inactive = no such curve, though single readings can be large or run the other way; the % refers to the polarisation. A potency beside an inconclusive call is a rough fit, not a confirmed value. “Side channel” marks fits to a control or component signal instead of the main read-out.

The compounds below were run against Menin (Homo sapiens) (UniProt O00255) (assay: qHTS Assay for Inhibitors Targeting the Menin-MLL Interaction in MLL Related Leukemias: Competition With Texas Red Labeled MLL-derived Mutant Peptide). Conditions: fluorescence polarization; FP activity change, negative = inhibition: at 61.6 µM (top of the series).
Sequence of UniProt O00255 (O00255 whole entry, looked up): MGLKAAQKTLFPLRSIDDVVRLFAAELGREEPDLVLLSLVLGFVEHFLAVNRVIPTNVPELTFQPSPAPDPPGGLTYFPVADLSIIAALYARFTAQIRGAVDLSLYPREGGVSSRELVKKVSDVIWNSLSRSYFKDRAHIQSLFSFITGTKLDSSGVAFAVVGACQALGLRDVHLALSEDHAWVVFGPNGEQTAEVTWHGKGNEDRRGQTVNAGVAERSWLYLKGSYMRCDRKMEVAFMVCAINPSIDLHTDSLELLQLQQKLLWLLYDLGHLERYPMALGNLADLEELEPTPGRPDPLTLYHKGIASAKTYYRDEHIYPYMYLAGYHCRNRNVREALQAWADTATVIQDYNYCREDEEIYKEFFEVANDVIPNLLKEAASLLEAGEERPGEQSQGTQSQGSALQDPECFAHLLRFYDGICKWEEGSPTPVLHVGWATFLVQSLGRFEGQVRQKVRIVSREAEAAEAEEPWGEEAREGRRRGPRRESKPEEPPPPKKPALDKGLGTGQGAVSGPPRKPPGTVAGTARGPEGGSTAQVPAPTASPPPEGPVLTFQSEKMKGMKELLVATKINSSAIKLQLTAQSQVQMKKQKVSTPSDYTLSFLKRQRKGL

For FP activity change, negative = inhibition in this document: % of control where 0% means no effect.
Potency is read from the fitted curve at half-maximal effect; tags tell the direction and shape of the fitted curve or compound fluorescence and quenching.

Structure (SMILES) | Potency | FP activity change, negative = inhibition
COc1ccc2c(c1)Cc1sc(NC(=O)c3cccnc3)nc1-2 | inconclusive: 10 µM [quencher, side channel, partial curve] | –
COc1ccccc1N1CCN(CCCCOc2ccc(C)cc2C)CC1 | inconclusive: 15.8 µM [fluorescent, side channel, partial curve] | –
Cc1ccc(CN2CCSc3ccc(C(=O)NC4CCN(Cc5ccccc5)CC4)cc32)cc1 | inconclusive: 3.16 µM [fluorescent, side channel, full curve] | –
COc1ccc(-n2c(C)nc3sc4c(c3c2=O)CCCC4)cc1 | inconclusive: 17.8 µM [fluorescent, side channel, partial curve] | –
O=C(O)COc1ccc(/C=N/Nc2nc(Nc3ccccc3)nc(N3CCCCC3)n2)cc1 | inconclusive: 12.6 µM [quencher, side channel, partial curve] | –
c1coc(-c2nc(-c3ccco3)c(-c3ccco3)nc2-c2ccco2)c1 | inconclusive: 17.8 µM [quencher, side channel, partial curve] | –
NC(=O)CC(NC(=O)c1cccc(Br)c1)c1ccc(N2CCN(c3ccc(F)cc3)CC2)c([N+](=O)[O-])c1 (configuration not stated) | inconclusive: 39.8 µM [quencher, side channel, single point] | –
CC(C)CN(C)c1nc(N)c(C(=O)N=C(N)N)nc1Cl | inconclusive: 14.1 µM [fluorescent, side channel, partial curve] | –
Cc1ccc(C=C2C(=O)c3ccccc3C2=O)o1 | – | inactive: 24.4%
C=C(C)COc1ccc(-c2[nH]ncc2-c2ccccc2)c(O)c1 | inconclusive: 14.1 µM [quencher, side channel, partial curve] | –
CCOc1ccc(OCCNCc2ccc(OC(C)C(=O)N(C)C)c(OCC)c2)cc1 (configuration not stated) | inconclusive: 35.5 µM [inhibitor, partial curve] | –
Oc1c(CN2CCCC(C(F)(F)F)C2)cc(Cl)c2ccccc12 (configuration not stated) | inconclusive: 12.6 µM [quencher, side channel, partial curve] | –
O=C(c1cc2cc(Cl)ccc2[nH]1)N1CCN(c2ccccc2F)CC1 | inconclusive: 31.6 µM [fluorescent, side channel, single point] | –
O=C(/C=C\NCC(=O)c1ccccc1)c1ccc2ccccc2c1 | inconclusive: 25.1 µM [quencher, side channel, partial curve] | –
Cc1cc(C(c2ccc(C)o2)c2ccc(C)o2)c(O)c([N+](=O)[O-])c1 | inconclusive: 39.8 µM [quencher, side channel, single point] | –
C=C(C)COc1ccc(-c2[nH]ncc2Oc2cccc(OC)c2)c(O)c1 | inconclusive: 12.6 µM [quencher, side channel, partial curve] | –
O=C(N/N=C/c1ccc(O)cc1)c1ccncc1 | inconclusive: 31.6 µM [inhibitor, single point] | –
O=C(c1cc2cc(Br)ccc2[nH]1)N1CCc2ccccc21 | inconclusive: 25.1 µM [quencher, side channel, single point] | –
O=Cc1cn(-c2ccccc2)nc1-c1ccc2c(c1)OCCO2 | inconclusive: 15.8 µM [quencher, side channel, partial curve] | –

Structure (SMILES) | Potency | FP activity change, negative = inhibition
COc1ccc(/C=C/C(=O)Nc2ccc(-n3nncc3-c3ccc(OC)c(OC)c3)cc2)cc1OC | inconclusive: 3.16 µM [quencher, side channel, full curve] | –
NS(=O)(=O)c1cc2c(cc1Cl)NC(CSCc1ccccc1)=NS2(=O)=O | inconclusive: 14.1 µM [quencher, side channel, partial curve] | –
Cc1nc(NC(=O)C2CC2)sc1C(=O)Nc1ccc(Br)cc1 | inconclusive: 39.8 µM [inhibitor, single point] | –
CCn1nc(NS(=O)(=O)c2ccccc2)c2cc3cccc(C)c3nc21 | inconclusive: 31.6 µM [quencher, side channel, single point] | –
COCc1ccc(C(=O)N2CCCC(C(=O)c3ccc(SC)cc3)C2)o1 (configuration not stated) | inconclusive: 25.1 µM [fluorescent, side channel, single point] | –
O=C(Nc1nc(-c2nc3ccccc3s2)cs1)C1CC1 | inconclusive: 15.8 µM [quencher, side channel, partial curve] | –
O=C(Cc1cccc2ccccc12)Nc1c(F)cccc1F | inconclusive: 39.8 µM [inhibitor, single point] | –
O=[N+]([O-])c1ccc(Cl)cc1CN1CCCCCC1 | inconclusive: 10 µM [inhibitor, partial curve] | –
O=C(CNC1CCCCC1)Nc1ccc(S(=O)(=O)N2CCCCC2)cc1 | inconclusive: 1.12 µM [inhibitor, full curve] | –
C=C(C)n1c(=O)n(Cc2ccc(C)cc2)c2ccccc21 | inconclusive: 31.6 µM [fluorescent, side channel, partial curve] | –
Cc1cc(-c2nn(-c3ccccc3F)cc2CN2CCN(c3ccncc3)CC2)c(C)s1 | inconclusive: 12.6 µM [inhibitor, partial curve] | –
CN1CCN(CC(=O)N/N=C\c2c[nH]c3ccccc23)CC1 | inconclusive: 25.1 µM [quencher, side channel, single point] | –
COc1ccc(/C=C/C(=O)c2ccc(C(=O)/C=C/c3ccc(OC)c(OC)c3)cc2)cc1OC | inconclusive: 14.1 µM [quencher, side channel, partial curve] | –
COc1cc(CC(=O)OCC(=O)Nc2cc([N+](=O)[O-])ccc2F)cc(OC)c1OC | – | inactive: 13.6%
C=CCN1C(=O)/C(=C/c2ccc(O)cc2)S/C1=N/c1nccs1 | inconclusive: 28.2 µM [quencher, side channel, partial curve] | –
COc1ccccc1/C=C/C(=O)OCC(=O)Nc1c(F)cccc1F | inconclusive: 28.2 µM [fluorescent, side channel, single point] | –
O=C(CC1CCCCC1)Nc1nc2ccccc2s1 | inconclusive: 12.6 µM [quencher, side channel, partial curve] | –
O=S(=O)(c1ccc2nc(SCc3cccc(Cl)c3)[nH]c2c1)N1CCOCC1 | inconclusive: 28.2 µM [quencher, side channel, partial curve] | –
CC(=O)O[C@H](C(=O)O[C@@H]1C[C@@H](CCC[C@H]2O[C@H](C(=O)OC(C)C)CC[C@@H]2C)O[C@@H](CC#N)C1)c1ccccc1 | – | inactive: -27.5%

Structure (SMILES) | Potency | FP activity change, negative = inhibition
CC1(C)S[C@@H]2[C@H](NC(=O)[C@H](C(=O)O)c3ccsc3)C(=O)N2[C@H]1C(=O)O | inactive | –
CCOc1ccc(/C=N/NC(=O)c2cc3c(OC)cc(OC)cc3[nH]2)cc1OC | inconclusive: 20 µM [quencher, side channel, partial curve] | –
CCc1cc(C(=O)N=Nc2c(O)[nH]c3ccc([N+](=O)[O-])cc23)c2ccccc2n1 | inconclusive: 17.8 µM [quencher, side channel, partial curve] | –
Cc1c2c(nc3c(C(=O)NC4CCCC4)cnn13)CCCC2 | – | inactive: -17%
CCc1nc(N)c(C#N)c(-c2ccc(OC)c(OC)c2)c1C | inconclusive: 39.8 µM [inhibitor, single point] | –
O=C(c1ccc(OCC2CCCO2)cc1)N1CCN(c2ccccc2)CC1 (configuration not stated) | inconclusive: 28.2 µM [fluorescent, side channel, single point] | –
O=C(CC(C(=O)N1CCc2ccccc21)n1ccnc1)N1CCc2ccccc2C1 (configuration not stated) | – | inactive: -22.8%
O=C(O)CCSc1nc2ccccc2n1-c1ccccc1 | inconclusive: 39.8 µM [inhibitor, partial curve, poor fit] | –
Cc1ccc(C(=O)OC[C@H]2O[C@H](Cl)C[C@@H]2OC(=O)c2ccc(C)cc2)cc1 | – | inactive: 0.775%
N#CC1=C(N2CCCCC2)c2cc3c(n2C1=O)CCCC3 | inconclusive: 39.8 µM [inhibitor, single point] | –
COc1ccc(CN(C)CC(=O)Nc2ccccc2C(F)(F)F)cc1 | inconclusive: 12.6 µM [fluorescent, side channel, partial curve] | –
COc1ccc(S(=O)(=O)N2CCC(C(=O)Nc3ccccc3N3CCCC3)CC2)cc1OC | inconclusive: 3.98 µM [quencher, side channel, full curve] | –
COc1cccc(/C=C2\SC(=S)N(CCCC(=O)Nc3cc(C)on3)C2=O)c1 | inconclusive: 35.5 µM [fluorescent, side channel, single point] | –
Cc1ccccc1NS(=O)(=O)c1nnc(NC(=O)c2ccc(Cl)cc2)s1 | inconclusive: 12.6 µM [quencher, side channel, partial curve] | –
CC(=O)Nc1ccc(-c2nnn(CC(=O)Nc3ccc4c(c3)OCO4)n2)cc1Cl | inconclusive: 39.8 µM [inhibitor, single point] | –
CCCCCCCCCCN1CCOCCOCCN(CCCCCCCCCC)CCOCCOCC1 | – | inactive: -1.83%
COc1cc2c(cc1NC(=O)c1ccccc1F)CCCC2 | inconclusive: 14.1 µM [fluorescent, side channel, single point] | –
Cc1nn(Cc2ccccc2)c(C)c1NC(=O)CSc1nc(C2CC2)nc2c1cnn2-c1ccccc1 | inconclusive: 3.98 µM [fluorescent, side channel, single point] | –
O=C(COc1ncnc2cc([N+](=O)[O-])ccc12)NCCc1ccc(Cl)cc1 | inconclusive: 28.2 µM [quencher, side channel, partial curve] | –
